Source: publication PMC12495329
Results are given in words; binding and its absence hold for the method and conditions named. Binding seen in cells or lysates may run through a third protein. Some entries that bind do so weakly or less than the wild type. Sequences can lack the tags named with a protein.

By UniProt entry, the sequences of proteins in these tests, tags left out.
UniProt Q9H4L4: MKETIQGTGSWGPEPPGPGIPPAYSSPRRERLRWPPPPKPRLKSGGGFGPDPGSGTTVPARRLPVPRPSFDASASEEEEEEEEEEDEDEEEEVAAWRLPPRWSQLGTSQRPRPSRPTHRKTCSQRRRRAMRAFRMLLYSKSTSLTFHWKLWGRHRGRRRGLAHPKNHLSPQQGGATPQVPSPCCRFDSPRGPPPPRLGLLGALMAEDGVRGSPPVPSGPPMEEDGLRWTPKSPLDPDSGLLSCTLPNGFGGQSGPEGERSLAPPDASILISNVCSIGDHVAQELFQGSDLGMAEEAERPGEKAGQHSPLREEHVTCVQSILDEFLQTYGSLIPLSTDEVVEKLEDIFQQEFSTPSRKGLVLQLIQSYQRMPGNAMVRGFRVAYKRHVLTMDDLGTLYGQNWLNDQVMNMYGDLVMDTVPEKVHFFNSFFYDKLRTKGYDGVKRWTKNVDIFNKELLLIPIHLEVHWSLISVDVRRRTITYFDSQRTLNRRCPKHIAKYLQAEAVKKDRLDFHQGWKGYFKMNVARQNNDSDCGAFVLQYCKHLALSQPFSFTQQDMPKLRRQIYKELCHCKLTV

Experiments:
Assay in all cases: co-IP; reciprocal: COS-7 cotransfected with Twin-Strep-Tag-GRHL2 and FLAG-SENP; lysate on anti-Flag magnetic beads holding the FLAG-SENPs, 4 h, 4 °C; Western blot
[1] = target: T1, FLAG-tagged SENP-1 (WT, full-length) (human) (UniProt Q9P0U3)
T1 sequence: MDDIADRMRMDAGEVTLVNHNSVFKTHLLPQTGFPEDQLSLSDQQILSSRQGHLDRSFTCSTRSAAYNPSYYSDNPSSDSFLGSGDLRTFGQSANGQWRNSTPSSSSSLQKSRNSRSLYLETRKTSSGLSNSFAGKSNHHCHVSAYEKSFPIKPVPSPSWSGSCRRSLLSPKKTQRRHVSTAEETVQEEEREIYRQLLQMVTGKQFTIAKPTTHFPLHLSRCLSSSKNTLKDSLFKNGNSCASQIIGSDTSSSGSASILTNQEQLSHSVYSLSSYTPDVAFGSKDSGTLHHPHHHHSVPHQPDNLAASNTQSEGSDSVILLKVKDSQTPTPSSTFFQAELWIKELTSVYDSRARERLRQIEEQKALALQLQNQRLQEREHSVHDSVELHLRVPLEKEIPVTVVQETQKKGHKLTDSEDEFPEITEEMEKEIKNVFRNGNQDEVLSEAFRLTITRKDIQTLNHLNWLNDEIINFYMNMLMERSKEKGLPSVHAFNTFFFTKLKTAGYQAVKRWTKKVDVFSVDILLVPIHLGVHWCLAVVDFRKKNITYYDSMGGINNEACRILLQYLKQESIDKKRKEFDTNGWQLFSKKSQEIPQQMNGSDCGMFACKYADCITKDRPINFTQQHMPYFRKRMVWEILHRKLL

[2] = target: T2, FLAG-tagged SENP-2 (WT, full-length) (human) (UniProt Q9HC62)
T2 sequence: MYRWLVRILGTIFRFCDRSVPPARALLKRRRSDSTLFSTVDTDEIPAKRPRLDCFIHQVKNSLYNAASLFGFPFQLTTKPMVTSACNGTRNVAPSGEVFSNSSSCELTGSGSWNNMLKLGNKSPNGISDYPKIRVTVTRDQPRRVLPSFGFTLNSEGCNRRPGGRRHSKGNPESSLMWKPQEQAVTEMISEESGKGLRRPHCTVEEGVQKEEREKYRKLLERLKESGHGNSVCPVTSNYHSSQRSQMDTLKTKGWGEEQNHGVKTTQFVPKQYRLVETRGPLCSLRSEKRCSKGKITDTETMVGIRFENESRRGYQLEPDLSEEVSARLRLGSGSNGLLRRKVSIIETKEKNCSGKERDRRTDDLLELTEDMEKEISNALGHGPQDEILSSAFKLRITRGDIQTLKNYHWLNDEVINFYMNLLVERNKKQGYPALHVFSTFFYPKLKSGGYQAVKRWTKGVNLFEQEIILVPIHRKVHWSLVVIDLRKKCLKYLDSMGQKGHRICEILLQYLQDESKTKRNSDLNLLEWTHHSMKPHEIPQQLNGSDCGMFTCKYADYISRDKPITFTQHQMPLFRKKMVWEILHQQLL

[3] = target: FLAG-tagged SENP-3 (WT, full-length) (human) (UniProt Q9H4L4)

binding [1]: binds | binding [2]: binds | binding [3]: no binding
B1: GRHL2 with an N-terminal Twin-Strep-Tag (protein, UniProt Q6ISB3 1-625)
chain: MSQESDNNKRLVALVPMPSDPPFNTRRAYTSEDEAWKSYLENPLTAATKAMMSINGDEDSAAALGLLYDYYKVPRDKRLLSVSKASDSQEDQEKRNCLGTSEAQSNLSGGENRVQVLKTVPVNLSLNQDHLENSKREQYSISFPESSAIIPVSGITVVKAEDFTPVFMAPPVHYPRGDGEEQRVVIFEQTQYDVPSLATHSAYLKDDQRSTPDSTYSESFKDAATEKFRSASVGAEEYMYDQTSSGTFQYTLEATKSLRQKQGEGPMTYLNKGQFYAITLSETGDNKCFRHPISKVRSVVMVVFSEDKNRDEQLKYWKYWHSRQHTAKQRVLDIADYKESFNTIGNIEEIAYNAVSFTWDVNEEAKIFITVNCLSTDFSSQKGVKGLPLMIQIDTYSYNNRSNKPIHRAYCQIKVFCDKGAERKIRDEERKQNRKKGKGQASQTQCNSSSDGKLAAIPLQKKSDITYFKTMPDLHSQPVLFIPDVHFANLQRTGQVYYNTDDEREGGSVLVKRMFRPMEEEFGPVPSKQMKEEGTKRVLLYVRKETDDVFDALMLKSPTVKGLMEAISEKYGLPVEKIAKLYKKSKKGILVNMDDNIIEHYSNEDTFILNMESMVEGFKVTLMEI
